Results from US20250136721A1.

What was measured:
[1] = target: pre-existing anti-VH ADA in human serum; experiment: ADA confirmation assay (MSD): 10 ug/mL test material against labelled DOM1H-131-206; share of 10 ADA-positive sera with binding
[2] = target: pre-existing anti-VH ADA in human serum; experiment: ADA confirmation assay (MSD): 10 ug/mL test material against labelled DOM1H-131-206, mean of 10 sera
[3] = target: pre-existing anti-V kappa (VL) ADA in human serum; experiment: '735 ADA confirmation assay (MSD): 10 ug/mL test material against labelled '735, mean of 7 donor sera

Row | Binder | % subjects with ADA binding (10 subjects) (% of subjects) [1] | Mean % inhibition of signal in confirmation assay [2] [%] | % inhibition in confirmation assay [3] [%]
1 | DOM1h-574-208 (protein) VH: EVQLLESGGGLVQPGGSLRLSCAASGFTFDKYSMGWVRQAPGKGLEWVSQISDTADRTYYAH[no letters for about 20 residues]MNSLRAEDTAVYYCAIYTGRWVPFEYWGQGTLVTVSS | 100 | 94.1 | 
2 | mAb-VL 15014 (bispecific antibody, human IgG1, kappa) heavy: QVTLRESGPALVKPTQTLTLTCTFSGFSLSTSGMGVSWIRQPPGKGLEWLAHIYWDDDKRYNPSLKSRLTISKDTSRNQVVLTMTNMDPVDTATYYCARRETVFYWYFDVWGRGTLVTVSS[no letters for human IgG1 constant region]GSTVAAPSTDIQMTQSPSSLSASVGDRVTITCRASRPISDWLHWYQQKPGKAPKLLIAWASSLQGGVPSRFSGSGSGTDFTLTISSLQPEDFATYYCQQEGWGPPTFGQGTKVEIKRAAA light: DIVLTQSPSSLSASVGDRVTITCKASQSVDYDGDSYMNWYQQKPGKAPKLLIYAASNLESGIPSRFSGSGSGTDFTFTISSLQPEDIATYYCQQSNEDPPTFGQGTKVEIKRTVAAPSVFIFPPSDEQLKSGTASVVCLLNNFYPREAKVQWKVDNALQSGNSQESVTEQDSKDSTYSLSSTLTLSKADYEKHKVYACEVTHQGLSSPVTKSFNRGEC |  |  | -4.4
3 | mAb-VL 15020 (bispecific antibody, human IgG1, kappa) heavy: QVTLRESGPALVKPTQTLTLTCTFSGFSLSTSGMGVSWIRQPPGKGLEWLAHIYWDDDKRYNPSLKSRLTISKDTSRNQVVLTMTNMDPVDTATYYCARRETVFYWYFDVWGRGTLVTVSS[no letters for human IgG1 constant region]GSTVAAPSTDIQMTQSPSSLSASVGDRVTITCRASRPISDWLHWYQQKPGKAPKLLIAWASSLQGGVPSRFSGSGSGTDFTLTISSLQPEDFATYYCQQEGWGPPTFGQGTKVEIKRTV light: DIVLTQSPSSLSASVGDRVTITCKASQSVDYDGDSYMNWYQQKPGKAPKLLIYAASNLESGIPSRFSGSGSGTDFTFTISSLQPEDIATYYCQQSNEDPPTFGQGTKVEIKRTVAAPSVFIFPPSDEQLKSGTASVVCLLNNFYPREAKVQWKVDNALQSGNSQESVTEQDSKDSTYSLSSTLTLSKADYEKHKVYACEVTHQGLSSPVTKSFNRGEC |  |  | 8.53
4 | mAb-VL 15019 (bispecific antibody, human IgG1, kappa) heavy: QVTLRESGPALVKPTQTLTLTCTFSGFSLSTSGMGVSWIRQPPGKGLEWLAHIYWDDDKRYNPSLKSRLTISKDTSRNQVVLTMTNMDPVDTATYYCARRETVFYWYFDVWGRGTLVTVSS[no letters for human IgG1 constant region]GSTVAAPSTDIQMTQSPSSLSASVGDRVTITCRASRPISDWLHWYQQKPGKAPKLLIAWASSLQGGVPSRFSGSGSGTDFTLTISSLQPEDFATYYCQQEGWGPPTFGQGTKVEIKRT light: DIVLTQSPSSLSASVGDRVTITCKASQSVDYDGDSYMNWYQQKPGKAPKLLIYAASNLESGIPSRFSGSGSGTDFTFTISSLQPEDIATYYCQQSNEDPPTFGQGTKVEIKRTVAAPSVFIFPPSDEQLKSGTASVVCLLNNFYPREAKVQWKVDNALQSGNSQESVTEQDSKDSTYSLSSTLTLSKADYEKHKVYACEVTHQGLSSPVTKSFNRGEC |  |  | 12.9
5 | DOM1h-574-208 - VL fusion (protein) EVQLLESGGGLVQPGGSLRLSCAASGFTFDKYSMGWVRQAPGKGLEWVSQISDTADRTYYAH[no letters for about 20 residues]MNSLRAEDTAVYYCAIYTGRWVPFEYWGQGTLVTVSSASTDIQMTQSPSSLSASVGDRVTITCRASRPIGTTLSWYQQKPGKAPKLLILWNSRLQSGVPSRFSGSGSGTDFTLTISSLQPEDFATYYCAQAGTHPTTFGQGTKVEIKR |  | 4.43 | 

Next, values leading:

Row | % subjects with ADA binding (10 subjects) (% of subjects) [1] | Mean % inhibition of signal in confirmation assay [2] [%] | % inhibition in confirmation assay [3] [%] | Binder
6 |  |  | 20.1 | mAb-VL 15021 (bispecific antibody, human IgG1, kappa) heavy: WIRQPPGKGLEWLAHIYWDDDKRYNPSLKSRLTISKDTSRNQVVLTMTNMDPVDTATYYCARRETVFYWYFDVWGRGTLVTVSS[no letters for human IgG1 constant region]GSTVAAPSTDIQMTQSPSSLSASVGDRVTITCRASRPISDWLHWYQQKPGKAPKLLIAWASSLQGGVPSRFSGSGSGTDFTLTISSLQPEDFATYYCQQEGWGPPTFGQGTKVEIK light: DIVLTQSPSSLSASVGDRVTITCKASQSVDYDGDSYMNWYQQKPGKAPKLLIYAASNLESGIPSRFSGSGSGTDFTFTISSLQPEDIATYYCQQSNEDPPTFGQGTKVEIKRTVAAPSVFIFPPSDEQLKSGTASVVCLLNNFYPREAKVQWKVDNALQSGNSQESVTEQDSKDSTYSLSSTLTLSKADYEKHKVYACEVTHQGLSSPVTKSFNRGEC
7 |  |  | 74.9 | mAb-VL '735 (bispecific antibody, human IgG1, kappa) heavy: QVQLVQSGAEVKKPGSSVKVSCKASGFYIKDTYMHWVRQAPGQGLEWMGTIDPANGNTKYVPKFQGRVTITADESTSTAYMELSSLRSEDTAVYYCARSIYDDYHVDDYYAMDYWGQGTLVTVSS[no letters for human IgG1 constant region]GSTVAAPSGSTVAAPSGSDIQMTQSPSSLSASVGDRVTITCRASRPISDWLHWYQQKPGKAPKLLIAWASSLQGGVPSRFSGSGSGTDFTLTISSLQPEDFATYYCQQEGWGPPTFGQGTKVEIKR light: DIVMTQSPLSLPVTPGEPASISCRSSQNIVHINGNTYLEWYLQKPGQSPRLLIYKISDRFSGVPDRFSGSGSGTDFTLKISRVEADDVGIYYCFQGSHVPWTFGQGTKLEIKRTVAAPSVFIFPPSDEQLKSGTASVVCLLNNFYPREAKVQWKVDNALQSGNSQESVTEQDSKDSTYSLSSTLTLSKADYEKHKVYACEVTHQGLSSPVTKSFNRGEC
